The other results are listed elsewhere or left out.

The values that follow come from the supplement of paper PMC11417369.

The subject of this assay is PF3D7_0420300 AP2 domain 1 (GST-tagged). In words: gcPBM binding intensity (ln(normalized median fluorescence intensity)); higher = stronger DNA binding. In short, it runs like this:
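After 1 h on an Agilent 4 × 180k array of primer-extended double-stranded 36-bp intergenic genomic probes and negative controls, bound GST-tagged P. falciparum DNA-binding domains were detected with Alexa488 anti-GST antibody and scanned at 488 nm. The domains had been expressed in E. coli, and binding took place in 1× PBS with 1% milk, 0.2 mg/ml BSA, 0.5% salmon testes DNA and 0.03% Triton X-100. Binding intensity is the highest Masliner-normalised natural-log median intensity across replicate spots of either probe orientation.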
“TAATAATTTTTTTTTTTTTTTTACGAAAATATGATT [GTGCAC_negctrl_site323]”: the “gcPBM binding intensity (ln)” value came out at 8.82.

Regarding “ATAATAAGAACTCAGTGTACTATCCTTTGAATTAAC [XGTACX_site8117]”, the “gcPBM binding intensity (ln)” value stood at 9.32.

Turning to “AACGTCTTTTTTTTTTTTTTTCTTTTTTTTTTTATT [CACACA_negctrl_site303]”, the “gcPBM binding intensity (ln)” value came out at 9.46.

Consider “TGTATGCTTACATAATGTACGGAAAAATAAAGGCAT [XGTACX_site6923]”, for which the “gcPBM binding intensity (ln)” value worked out at 9.43.

“ATATATAAATAATGTTGTACGTATTTCAAAAGTATG [XGTACX_site3363]”: the “gcPBM binding intensity (ln)” value amounted to 9.24.

As to “ATAATAATAATAAAAAGTACAAATTATTATATATAT [XGTACX_site5160]”, the “gcPBM binding intensity (ln)” value worked out at 9.42.

With “TGCTCTCTCTTGTTGTGTACATAATACAATATATAT [XGTACX_site7427]”, the “gcPBM binding intensity (ln)” value is 9.6.

For the sequence “ATATATTTGTATAATAGTACGTACAGGCAAAATATA [XGTACX_site7396]”, the “gcPBM binding intensity (ln)” value came to 9.42.

For the sequence “TACATTTAAAAAAAAACACACATATATATATATATA [CACACA_site2535]”, the “gcPBM binding intensity (ln)” value was determined as 8.99.

Turning to “TTTCTTTTTATATTCACACATAAATATATATATATA [CACACA_site6053]”, the “gcPBM binding intensity (ln)” value was 9.19.

“AAAAAAAAAAAACACACACACACATACCCATACATA [CACACA_site5575]”: the “gcPBM binding intensity (ln)” value worked out at 10.1.

Regarding “ATATAAAAATATAATACACACATAAAATATATTATA [CACACA_site969]”, the “gcPBM binding intensity (ln)” value stood at 9.71.

Take “TATATAAGGAAATATTGTACTTTTATATTTATATTA [XGTACX_site3814]”: the “gcPBM binding intensity (ln)” value amounted to 9.13.

For the sequence “AAAAAAAAAAAAAAAACACACAGAAATATATATATA [CACACA_site4611]”, the “gcPBM binding intensity (ln)” value was 9.55.

Take “AAAGAAGGGAAACACACACACACACCCACAAAAAAA [CACACA_site3766]”: the “gcPBM binding intensity (ln)” value turned out to be 9.98.

As to “AATAAAAAAAAAATAAATTTAATAATAATAATAAAA [CACACA_negctrl_site569]”, the “gcPBM binding intensity (ln)” value came out at 9.05.

With “TGTATATATATTTATGCATGCTGTGTGTATTCTTTT [TGCATGCA_site74]”, the “gcPBM binding intensity (ln)” value was 9.78.

Consider “TTTATATATTTTAGGAGTACATTAAATTATACCTTA [XGTACX_site5600]”, for which the “gcPBM binding intensity (ln)” value stood at 9.01.

With “TATAACAAAAAAAAATAAAAAATAAAACTATATATA [CACACA_negctrl_site504]”, the “gcPBM binding intensity (ln)” value worked out at 9.28.

Take “TTTTTTTTTTATTCTTCACACATTTCCAATAAAAAA [CACACA_site5601]”: the “gcPBM binding intensity (ln)” value amounted to 9.16.

For “ACCTAAAATAACTACACACACATAAAAAAAAAAAAA [CACACA_site2529]”, the “gcPBM binding intensity (ln)” value was determined as 9.9.

With “GTTATTATATATATGTGTACTTAAAAATTTTATGTC [XGTACX_site6084]”, the “gcPBM binding intensity (ln)” value was 9.33.

As for “TTAAAAAACTATAATACACACCAAAAATATGCACAT [CACACA_site7079]”, the “gcPBM binding intensity (ln)” value came to 9.85.

Consider “AATATAAATATAAATTGTACTTAAAAATTTCACGCA [XGTACX_site5234]”, for which the “gcPBM binding intensity (ln)” value was 9.12.

For the sequence “TCCTTTTGAACCCTTTTTCTCACAAGACCTTTATAT [TGCATGCA_negctrl_site413]”, the “gcPBM binding intensity (ln)” value turned out to be 9.11.

“TTTCGTTGTGTATTTTGTACATATTTTTAATTATAT [XGTACX_site6687]”: the “gcPBM binding intensity (ln)” value amounted to 9.48.

For “TTTCTTTTTTAAATTAAAATTTTTTTTTTTTTCGGT [TGCATGCA_negctrl_site52]”, the “gcPBM binding intensity (ln)” value stood at 8.81.

Regarding “AAGAAAAAGATGCGCATACACACAGATGAATAACAA [CACACA_site1627]”, the “gcPBM binding intensity (ln)” value is 9.85.

Take “TTATTTCAAAGTTGTTGTACAAAAATATATTTATAA [XGTACX_site5226]”: the “gcPBM binding intensity (ln)” value is 8.96.

With “AATTAAAAAGTTTTTAATGTTTTTAATTTTTTCCAC [XGTACX_negctrl_site423]”, the “gcPBM binding intensity (ln)” value was determined as 8.9.

For “AAAAAAATAATGTACACACACATATATGTTTATATA [CACACA_site6234]”, the “gcPBM binding intensity (ln)” value is 9.65.

For “TATATAAATTATGTGAGTACATAATTTAGAAGGAAC [XGTACX_site2807]”, the “gcPBM binding intensity (ln)” value was 9.43.

On to “AAAGGTGTATTTAATACACACGTGTCATTAAAATTG [CACACA_site4508]”, for which the “gcPBM binding intensity (ln)” value was found to be 9.24.

For “ATTAATATTTAGACTTGTACATATATAATATATGTC [XGTACX_site3766]”, the “gcPBM binding intensity (ln)” value was 9.2.

Take “ATAAAATATCAATACCGTACACAAGCAGGTAAAATA [XGTACX_site3719]”: the “gcPBM binding intensity (ln)” value amounted to 9.66.

As to “CTTTTTTGTAATAACACACACACAAACAGAAAAAAT [CACACA_site2075]”, the “gcPBM binding intensity (ln)” value came out at 10.1.

Regarding “TTATTATTAGAAAAAAGTACACATATAAAATGTTAC [XGTACX_site6426]”, the “gcPBM binding intensity (ln)” value came to 9.14.

With “GGATACATATGTAAAAGTACACATGAATATATACAT [XGTACX_site6469]”, the “gcPBM binding intensity (ln)” value was 9.36.

For “GTAAAATTAAAAATAACACACAAAAAAAAAAAAAAA [CACACA_site800]”, the “gcPBM binding intensity (ln)” value was 9.38.

Consider “AAAAAAAAAAGAAAAAGTACATACATACATATATAT [XGTACX_site6405]”, for which the “gcPBM binding intensity (ln)” value stood at 9.35.

For “TTCTTTTTTATTTATACATGCAATAAAAAATTGATT [TGCATGCA_site730]”, the “gcPBM binding intensity (ln)” value is 9.14.

As for “TTTTTTTAAAACAAAAAAAAAAAAAAAAAAAAAAAA [TGCATGCA_negctrl_site418]”, the “gcPBM binding intensity (ln)” value came out at 8.14.

Take “AATAAACATTATTTTCGTATTCCAATTCTTTTTTTT [XGTACX_negctrl_site374]”: the “gcPBM binding intensity (ln)” value is 9.4.

In the case of TTGATAAAATCACTGGTGCATGTAGATATATAATAT, the “gcPBM binding intensity (ln)” value was 9.3.
